Test system: P388 leukemia
Assay: P388 leukemia in vivo (increase in lifespan of mice, i.p. tumour)
Settings: days 1, 5 and 9 after tumor inoculation, in 0.1 ml of 30% v/v ethyl alcohol in water, as soluble acid addition salt

| SMILES | OD (optimal drug dose) [milligrams per kilogram] |
| --- | --- |
| CNc1cc(NS(C)(=O)=O)ccc1Nc1c2ccccc2nc2cc(NC(=O)OC)ccc12 [Compound 11] | 13.3 |
| CNc1cc(NS(C)(=O)=O)ccc1Nc1c2ccccc2nc2c(C)cccc12 [Compound 12] | 13.3 |
| CNc1cc(NS(C)(=O)=O)ccc1Nc1c2ccc(Cl)cc2nc2c(C)cccc12 [Compound 19] | 13.3 |
| CNc1cc(NS(C)(=O)=O)ccc1Nc1c2ccc(Br)cc2nc2c(C)cccc12 [Compound 21] | 13.3 |
| CNc1cc(NS(C)(=O)=O)ccc1Nc1c2ccc(C)cc2nc2c(OC)cccc12 [Compound 22] | 13.3 |
| CNC(=O)c1cccc2c(Nc3ccc(NS(C)(=O)=O)cc3NC)c3cccc(C)c3nc12 [Compound 24] | 13.3 |
| CNc1cc(NC(=O)OC)ccc1Nc1c2ccccc2nc2c(C)cccc12 [Compound 58] | 13.3 |

Test system: Lewis lung carcinoma
Assay: Lewis lung carcinoma in vivo (increase in lifespan of mice, i.v. tumour)
Settings: days 1, 5 and 9 after tumor inoculation, in 0.1 ml of 30% v/v ethyl alcohol in water, as soluble acid addition salt

| SMILES | OD (optimal drug dose) [milligrams per kilogram] |
| --- | --- |
| CNc1cc(NS(C)(=O)=O)ccc1Nc1c2ccccc2nc2c(C)cccc12 [Compound 12] | 13.3 |

Source: patent publication US4795826A, “Ortho-phenylenediamine compounds” (priority 1986, dated 1989)
